Assay results published in PubChem BioAssay (NCI).
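Protocol summary: plate cells (96-well), add compound at 5 concentrations, incubate 48 h, interpolate endpoints linearly. The concentration for 50% growth inhibition is given as GI50.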 The source holds more than one record for some entries. The other results are left out here. An entry can have further records. For part of these data: Records of one sample usually come from different ranges of test concentrations, not given here; some values may only mark the edge of a range. Marks in square brackets tell the records apart. Letters count within one entry. For part of these data: Results that share an entry are repeated measurements (runs, samples, wells, individuals or studies).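 TGI marks complete inhibition of growth.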

Assays:
Experiment in all cases: inhibition of tumour cell growth, NCI panel, 48 h
[1] = system: ACHN renal
[2] = system: HCC-2998 colon
[3] = system: SNB-75 CNS
[4] = system: OVCAR-5 ovarian
[5] = system: HOP-92 NSCLC
[6] = system: SF-268 CNS
[7] = system: SK-MEL-2 melanoma
[8] = system: U251 CNS
[9] = system: NCI-H522 lung
[10] = system: NCI-H460 lung
[11] = system: LOX IMVI melanoma
[12] = system: OVCAR-4 ovarian
[13] = system: SR leukemia
[14] = system: UACC-257 melanoma
[15] = system: HL-60(TB) leukemia
[16] = system: COLO 205 colon
[17] = system: SF-295 CNS
[18] = system: HCT-116 colon
[19] = system: HT29 colon
[20] = system: HCT-15 colon
[21] = system: A549 NSCLC
[22] = system: EKVX NSCLC
[23] = system: MOLT-4 leukemia
[24] = system: 786-0 renal
[25] = system: KM12 colon
[26] = system: RPMI-8226 leukemia
[27] = system: M14 melanoma
[28] = system: CAKI-1 renal
[29] = system: MALME-3M melanoma
[30] = system: OVCAR-8 ovarian
[31] = system: OVCAR-3 ovarian
[32] = system: UACC-62 melanoma
[33] = system: XF 498 CNS
[34] = system: SK-MEL-28 melanoma
[35] = system: MDA-MB-435
[36] = system: HOP-62 NSCLC
[37] = system: NCI-H23 lung
[38] = system: SNB-19 CNS
[39] = system: BT-549 breast
[40] = system: SF-539 CNS

[Cl][Sn]([c]1ccccc1)([c]1ccccc1)[c]1ccccc1
TGI [1]: 526 nM [sample A, 1 test] and 121 nM, 52.2 nM [sample B, 1 test]
GI50 [2]: 247 nM [sample A, 1 test] and 16.3 nM [sample B, 1 test]
TGI [2]: 492 nM [sample A, 1 test] and 35.1 nM [sample B, 1 test]
GI50 [3]: 294 nM [sample A, 1 test] and 34.7 nM, 20.2 nM [sample B, 1 test]
TGI [3]: 1.63 µM [sample A, 1 test] and 178 nM, 108 nM [sample B, 1 test]
GI50 [4]: 186 nM [sample A, 1 test] and 137 nM, 12.3 nM [sample B, 1 test]
TGI [5]: 401 nM [sample A, 1 test] and 288 nM, 38.3 nM [sample B, 1 test]
GI50 [6]: 247 nM [sample A, 1 test] and 34.3 nM, 22.2 nM [sample B, 1 test]
TGI [6]: 713 nM [sample A, 1 test] and 110 nM, 61.7 nM [sample B, 1 test]
GI50 [7]: 241 nM [sample A, 1 test] and 72 nM, 22.1 nM [sample B, 1 test]
GI50 [8]: 183 nM [sample A, 1 test] and 15.5 nM [sample B, 1 test]
TGI [8]: 355 nM [sample A, 1 test] and 33.4 nM [sample B, 1 test]
GI50 [9]: 201 nM [sample A, 1 test] and 15.2 nM [sample B, 1 test]
TGI [9]: 408 nM [sample A, 1 test] and 35.6 nM [sample B, 1 test]
GI50 [10]: 228 nM [sample A, 1 test] and 17.1 nM, 23 nM [sample B, 1 test]
TGI [10]: 551 nM [sample A, 1 test] and 33.3 nM, 50.4 nM [sample B, 1 test]
GI50 [11]: 175 nM [sample A, 1 test] and 32.6 nM, 13.6 nM [sample B, 1 test]
TGI [11]: 375 nM [sample A, 1 test] and 124 nM, 28.1 nM [sample B, 1 test]
GI50 [12]: 198 nM [sample A, 1 test] and 27.7 nM, 14.6 nM [sample B, 1 test]
TGI [12]: 552 nM [sample A, 1 test] and 80.4 nM, 45.1 nM [sample B, 1 test]
GI50 [13]: 278 nM [sample A, 1 test] and 37.7 nM, 10.6 nM [sample B, 1 test]
GI50 [14]: 380 nM [sample A, 1 test] and 122 nM, 24.8 nM [sample B, 1 test]
TGI [14]: 1.48 µM [sample A, 1 test] and 259 nM, 82.2 nM [sample B, 1 test]
GI50 [15]: 362 nM [sample A, 1 test] and 29.4 nM [sample B, 1 test]
GI50 [16]: 210 nM [sample A, 1 test] and 34.2 nM, 15.7 nM [sample B, 1 test]
TGI [16]: 412 nM [sample A, 1 test] and 111 nM, 38.4 nM [sample B, 1 test]
GI50 [17]: 367 nM [sample A, 1 test] and 160 nM, 26.6 nM [sample B, 1 test]
TGI [17]: 1.31 µM [sample A, 1 test] and 320 nM, 63.3 nM [sample B, 1 test]
GI50 [18]: 181 nM [sample A, 1 test] and 15.4 nM, < 10 nM [sample B, 1 test]
TGI [18]: 369 nM [sample A, 1 test] and 32 nM, 18.3 nM [sample B, 1 test]
GI50 [19]: 209 nM [sample A, 1 test] and 38 nM, < 10 nM [sample B, 1 test]
TGI [19]: 372 nM [sample A, 1 test] and 137 nM, 23.2 nM [sample B, 1 test]
GI50 [20]: 216 nM [sample A, 1 test] and 23.9 nM, 13 nM [sample B, 1 test]
TGI [20]: 506 nM [sample A, 1 test] and 68.1 nM, 30.4 nM [sample B, 1 test]
GI50 [21]: 189 nM [sample A, 1 test] and 53.7 nM, 18 nM [sample B, 1 test]
GI50 [22]: 248 nM [sample A, 1 test] and 93.3 nM, 24.3 nM [sample B, 1 test]
GI50 [23]: 305 nM [sample A, 1 test] and < 10 nM [sample B, 1 test]
TGI [23]: 984 nM [sample A, 1 test] and 49.5 nM [sample B, 1 test]
GI50 [24]: 170 nM [sample A, 1 test] and 17.6 nM, 10.8 nM [sample B, 1 test]
TGI [24]: 360 nM [sample A, 1 test] and 37.6 nM, 23.3 nM [sample B, 1 test]
GI50 [25]: 189 nM [sample A, 1 test] and 17.9 nM, 10.7 nM [sample B, 1 test]
TGI [25]: 363 nM [sample A, 1 test] and 40.7 nM, 28.4 nM [sample B, 1 test]
GI50 [26]: 271 nM [sample A, 1 test] and 37.8 nM, < 10 nM [sample B, 1 test]
TGI [26]: 952 nM [sample A, 1 test] and 295 nM, 25.3 nM [sample B, 1 test]
GI50 [27]: 219 nM [sample A, 1 test] and 41.9 nM, 18.2 nM [sample B, 1 test]
TGI [27]: 530 nM [sample A, 1 test] and 147 nM, 41.6 nM [sample B, 1 test]
GI50 [28]: 220 nM [sample A, 1 test] and 32 nM, 19.7 nM [sample B, 1 test]
TGI [28]: 849 nM [sample A, 1 test] and 151 nM, 80.5 nM [sample B, 1 test]
GI50 [29]: 265 nM [sample A, 1 test] and 180 nM, 21.5 nM [sample B, 1 test]
TGI [29]: 584 nM [sample A, 1 test] and 362 nM, 53.3 nM [sample B, 1 test]
GI50 [30]: 289 nM [sample A, 1 test] and 147 nM, 15.2 nM [sample B, 1 test]
TGI [30]: 934 nM [sample A, 1 test] and 366 nM, 29.1 nM [sample B, 1 test]
GI50 [31]: 182 nM [sample A, 1 test] and 19.7 nM, 13.1 nM [sample B, 1 test]
GI50 [32]: 226 nM [sample A, 1 test] and 106 nM, 15.9 nM [sample B, 1 test]
TGI [32]: 597 nM [sample A, 1 test] and 239 nM, 46.5 nM [sample B, 1 test]
GI50 [33]: 103 nM and < 10 nM
TGI [33]: 224 nM and 17.9 nM

CC[C@@]1(O)C(=O)OCc2c1cc1n(c2=O)Cc2cc3cc4c(cc3nc2-1)OCO4
TGI [1]: 1.71 nM and 102 nM
TGI [34]: 554 nM and > 100 µM
TGI [3]: 8.93 nM and 10.8 µM
TGI [6]: 29.6 nM and 407 nM
TGI [35]: 166 nM and > 100 µM
TGI [36]: 9.64 nM and 144 nM
TGI [12]: 600 nM and > 100 µM
TGI [15]: 2.93 nM and > 100 µM
TGI [19]: 550 nM and > 51.2 µM
TGI [37]: 4.5 nM and 82.2 nM
TGI [22]: 2.46 µM and > 100 µM
GI50 [26]: 6.43 nM and 78.7 nM
TGI [26]: 262 nM and > 100 µM
TGI [27]: 4.39 nM and 247 nM
TGI [28]: 27.4 nM and 12.7 µM
TGI [29]: 30.7 nM and 2.93 µM
TGI [38]: 1.87 µM and 34.1 nM
TGI [39]: 755 nM and 19.6 nM

Cc1cccc(/C=N/NC(=S)N2CCCC2)n1
TGI [5]: 7.66 µM and > 100 µM
TGI [16]: 1.76 µM and > 100 µM
TGI [40]: 5.06 µM and > 58.3 µM
